Reference: publication PMC11880193 (Nature Communications, 2025)

T1: CODANIN-1 full-length (1–1227 a.a.), wild type (human, UniProt Q8IWY9 1-1227)
T1 sequence: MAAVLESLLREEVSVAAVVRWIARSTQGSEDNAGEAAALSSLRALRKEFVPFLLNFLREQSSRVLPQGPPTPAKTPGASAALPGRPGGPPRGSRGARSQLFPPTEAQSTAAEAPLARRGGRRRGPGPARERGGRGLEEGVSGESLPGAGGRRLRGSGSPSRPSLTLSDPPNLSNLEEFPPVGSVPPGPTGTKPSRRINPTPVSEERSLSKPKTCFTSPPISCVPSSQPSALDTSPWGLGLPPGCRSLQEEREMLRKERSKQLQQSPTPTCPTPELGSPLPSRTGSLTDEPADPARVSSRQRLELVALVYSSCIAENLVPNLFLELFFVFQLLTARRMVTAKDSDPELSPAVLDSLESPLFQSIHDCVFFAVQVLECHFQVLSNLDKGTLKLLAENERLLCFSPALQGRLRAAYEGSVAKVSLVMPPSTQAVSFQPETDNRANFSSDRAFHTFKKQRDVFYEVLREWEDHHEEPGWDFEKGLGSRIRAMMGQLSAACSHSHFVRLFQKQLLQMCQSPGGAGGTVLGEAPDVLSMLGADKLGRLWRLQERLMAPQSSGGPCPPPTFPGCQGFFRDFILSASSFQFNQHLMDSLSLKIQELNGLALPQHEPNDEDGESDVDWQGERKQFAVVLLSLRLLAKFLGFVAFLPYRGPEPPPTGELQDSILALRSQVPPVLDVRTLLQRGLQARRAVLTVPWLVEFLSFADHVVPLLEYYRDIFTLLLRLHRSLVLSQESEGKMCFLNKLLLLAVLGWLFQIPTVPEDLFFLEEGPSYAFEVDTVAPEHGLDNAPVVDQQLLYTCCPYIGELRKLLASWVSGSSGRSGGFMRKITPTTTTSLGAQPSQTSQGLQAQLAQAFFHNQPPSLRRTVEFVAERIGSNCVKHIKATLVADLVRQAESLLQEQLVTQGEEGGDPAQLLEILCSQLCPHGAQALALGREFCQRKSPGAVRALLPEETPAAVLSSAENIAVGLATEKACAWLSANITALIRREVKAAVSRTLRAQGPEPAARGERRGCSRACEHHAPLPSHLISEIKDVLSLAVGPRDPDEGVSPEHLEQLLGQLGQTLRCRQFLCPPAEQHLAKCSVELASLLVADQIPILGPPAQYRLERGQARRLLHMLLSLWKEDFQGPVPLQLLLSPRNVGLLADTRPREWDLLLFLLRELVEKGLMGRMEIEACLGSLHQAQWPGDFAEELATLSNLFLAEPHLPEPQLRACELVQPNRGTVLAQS

T2: full-length CODANIN-1 Mut4 (BD-Cmut_R825A/K826A) (human, UniProt Q8IWY9 1-1227, R825A | K826A)
T2 sequence: T1 sequence with R825A, K826A

B1: GST-ASF1A_([…]) D54A (domain or fragment)
chain: not shown
B2: GST-ASF1A_([…]) D88A (domain or fragment)
chain: not shown
B3: GST-ASF1A_([…]) E36A/D37A (domain or fragment)
chain: not shown
B4: GST-ASF1A_([…]) V94R (domain or fragment)
chain: not shown

What was measured:
[1] = biological target: T1, CODANIN-1 full-length (1–1227 a.a.), …; experiment: pull-down
[2] = biological target: T2, full-length CODANIN-1 Mut4 …; experiment: pull-down

Binder | binding result [1] | binding result [2]
B1 | binds | –
B2 | binds | –
B3 | binds | –
B4 | binds | binds

Positions count from the first letter of the chain named. In names and notes the source's numbering stands.
